Measurements reported in paper PMC9440446 (The Journal of Biological Chemistry, 2022).

Target: human mTORC2 core complex (SpyCatcher003-mTOR, Flag-Rictor, HA-mLST8, mSin1-HA) (human, UniProt P42345;Q6R327;Q9BVC4;Q9BPZ7)
Assay: SEC

- binding result: binds
B1: inactive human kinase-dead Akt1 (K179M), FLAG-tagged, dephosphorylated (enzyme)
chain: not shown
